Experimental data reported in PubChem BioAssay AID1030 (National Center for Advancing Translational Sciences (NCATS), 2008).
The whole screen tested about 220,000 compounds, of which about 16,000 (7.3%) were called active. This list was built around the results that the source calls inconclusive (neither active nor inactive); the mix of calls is not that of the screen. Calls come from the whole dose curve; as a rule, active = well fitted inhibition curve with a large enough effect (not every such curve was filed as active); inconclusive = small, poorly fitted or top-dose-only effect, or another doubt; inactive = no such curve, though single readings can be large or run the other way. Potencies of inconclusive entries are left out as doubtful fits.

Target: Aldehyde dehydrogenase 1A1 (Homo sapiens) (UniProt P00352)
Assay: qHTS Assay for Inhibitors of Aldehyde Dehydrogenase 1 (ALDH1A1);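 for activity, negative = inhibition: plate controls were no enzyme wells and a reference inhibitor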
Conditions: Purified ALDH1A1, NADH fluorescence, propionaldehyde substrate; series mostly up to 75.3 µM; activity, negative = inhibition: at the top concentration
Potency is the fitted concentration of half-maximal effect; tags give direction and shape of the fitted curve.

Sequence of UniProt P00352 (P00352 whole entry, looked up): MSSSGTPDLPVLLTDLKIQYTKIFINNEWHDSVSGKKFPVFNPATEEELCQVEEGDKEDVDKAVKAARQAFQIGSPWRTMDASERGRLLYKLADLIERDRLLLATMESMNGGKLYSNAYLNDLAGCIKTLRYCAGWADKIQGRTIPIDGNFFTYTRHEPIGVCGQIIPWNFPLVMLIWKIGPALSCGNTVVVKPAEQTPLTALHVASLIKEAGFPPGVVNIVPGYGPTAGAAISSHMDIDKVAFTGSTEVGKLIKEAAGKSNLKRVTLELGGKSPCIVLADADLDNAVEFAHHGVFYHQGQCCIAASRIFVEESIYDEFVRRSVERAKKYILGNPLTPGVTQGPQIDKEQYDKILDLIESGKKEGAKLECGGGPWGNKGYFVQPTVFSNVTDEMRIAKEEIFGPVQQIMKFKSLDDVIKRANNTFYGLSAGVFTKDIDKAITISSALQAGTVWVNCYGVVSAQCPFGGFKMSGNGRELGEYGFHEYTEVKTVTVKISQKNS

Compound	activity, negative = inhibition	Potency
O=C(CCCOc1ccc(Cl)cc1Cl)NCc1ccccn1	inactive: 4.99%	–
CC1(C)CC(=O)C2=C(C1)N(N1CCOCC1)C(N)=C(C#N)C2c1cccs1 (stereo not drawn)	inactive: 9.07%	–
N#Cc1c(NC(NC(=O)c2ccco2)C(=O)c2ccccc2)sc2c1CCCC2 (stereo not drawn)	–	inconclusive [inhibitor, single point]
NCCNC(=S)S	–	active: 3.16 µM
CCCCc1nc2c(c3c1C[C@H](C)OC3)CN(C(=O)c1cccnc1)CC2	inactive: 6.41% [at 13.5 µM]	–
N#Cc1c(N2CCCCC2)nc(N)c2c(N)nc3c(c12)CC(c1ccccc1)O3 (stereo not drawn)	–	inconclusive [inhibitor, single point]
Cn1ncc(N=Cc2ccc([N+](=O)[O-])cc2)c1C(=O)N1CCOCC1	–	inconclusive [inhibitor, single point]
C[C@@H](O)C#C[Si](C)(C)c1ccccc1	inactive: -4.29%	–
CCOC(=O)C1CCN(S(=O)(=O)c2ccc(C(C)=O)cc2)CC1	inactive: -1.19%	–
COc1ccccc1Cc1nc(-c2ccncc2)no1	inactive: 1.31%	–
Cc1cccc(C(O)(C(=O)NNc2ccc3ccccc3n2)c2cccc(C)c2)c1	–	inconclusive [inhibitor, single point]
COc1cc(NC(=O)c2cc(-c3cccs3)on2)cc(OC)c1OC	–	inconclusive [inhibitor, single point]
CCCc1cc(=O)[nH]c(SCC(=O)N2CCCc3ccccc32)n1	–	inconclusive [inhibitor, single point]
Cc1nc(NC(=O)CN2CCOCC2)sc1-c1ccccc1	–	inconclusive [inhibitor, single point]
CCCCS(=O)(=O)c1sc2nc3c(cc2c1N)CCCC3	–	inconclusive [inhibitor, single point]
COC(=O)[C@H](COC(C)(C)C)NC(=O)O[C@@H]1Cc2cc(Br)ccc2O[C@H]1c1cccc(OC)c1	inactive: 15.8%	–
O=C1[C@H]2[C@H](ON3CCCC[C@H]23)C(=O)N1c1cccc(C(F)(F)F)c1	inactive: -3.6%	–
CC(=O)/C(N=Nc1cc(C)ccc1O)=C(\C)O	–	active: 2 µM
CCc1ccccc1-n1c(SCC(=O)Nc2ccc3c(c2)OCCO3)nc2[nH]ncc2c1=O	inactive: -10.3%	–
O=C(CSc1nnc(COc2ccccc2Cl)o1)NC(=O)NC1CCCC1	–	inconclusive [inhibitor, single point]
CC(C)c1nnc(NC(=O)C2CCN(c3nc4ccccc4s3)CC2)s1	–	inconclusive [inhibitor, partial curve]
O=C(CCCOc1ccc(Cl)cc1Cl)N/N=C\C1CCCCC1	–	inconclusive [inhibitor, single point]
CCN(CCC#N)c1ccc(/C=N/Nc2nc(C)cc(=O)[nH]2)c(C)c1	–	inconclusive [inhibitor, partial curve]
Cc1onc(-c2c(F)cccc2Cl)c1C(=O)Nc1nnc(C2CC2)s1	–	inconclusive [inhibitor, single point]
CCOc1ccc(-c2cn3ccccc3n2)cc1	–	inconclusive [inhibitor, single point]

Compound	activity, negative = inhibition	Potency
Cc1ccc2nc(-c3ccc(NC(=O)CNC4CC4)cc3)sc2c1	–	inconclusive [inhibitor, partial curve]
COc1ccccc1-c1cc(N(C)Cc2ccco2)ncn1	–	inconclusive [inhibitor, single point]
Cc1ccc(-n2c(SCC(=O)Nc3ccc4c(c3)OCO4)nnc2-c2ccoc2C)cc1	–	inconclusive [inhibitor, partial curve, poor fit]
COc1ccc(NS(=O)(=O)c2cccc(C(=O)N/N=C/c3ccc(O)cc3)c2)cc1	–	inconclusive [inhibitor, single point]
COC(=O)[C@H](COC(C)(C)C)NC(=O)O[C@@H]1Cc2cc(OC)ccc2O[C@H]1c1cccc(OC)c1	inactive: -7.81%	–
Cc1cccc2sc(NNC(=O)c3ccc(S(=O)(=O)N4CC(C)CC(C)C4)cc3)nc12 (stereo not drawn)	–	inconclusive [inhibitor, single point]
COc1ccc(-c2nc(CS(=O)CC(=O)NCc3ccco3)c(C)o2)cc1 (stereo not drawn)	–	inconclusive [inhibitor, single point]
CCCc1sc(N)nc1-c1ccc(C)cc1	–	inconclusive [inhibitor, single point]
COC(=O)C1=CN(Cc2ccc(OC)cc2)C=C(C(=O)OC)C1c1ccsc1	–	inconclusive [inhibitor, partial curve]
COc1ccc(CCNC(=O)CN2C(=O)C3(OCCCO3)c3ccccc32)cc1OC	–	inconclusive [inhibitor, single point]
Fc1cc(F)cc(NC(=S)NN2CCOCC2)c1	–	inconclusive [inhibitor, single point]
COCC(O)CSc1nc(C)[nH]c1[N+](=O)[O-] (stereo not drawn)	inactive: 1.47%	–
Cc1noc(C)c1CSc1ccccc1C(=O)Nc1nccs1	–	active: 18.9 µM
COc1cc(Cl)c(S(=O)(=O)NCCN2CCOCC2)cc1Cl	–	inconclusive [inhibitor, single point]
O=C(Nc1ccc(F)cc1)Nc1ccc(N2CCCC2)c(S(=O)(=O)Nc2ccccc2Cl)c1	–	inconclusive [inhibitor, single point]
O=[N+]([O-])c1ccc(N2CCNCC2)cc1Sc1nc2ccccc2[nH]1	–	inconclusive [inhibitor, single point]
CSc1ncc(Cl)c(C(=O)Nc2ccc(NC(C)=O)cc2)n1	–	inconclusive [inhibitor, single point]
COc1cc(CNn2c(C)n[nH]c2=S)cc(Br)c1OCc1ccc(F)cc1	–	active: 28.2 µM
O=C(CSc1nnnn1C1CCCCC1)N1c2ccccc2Sc2ccccc21	–	inconclusive [inhibitor, full curve]
CCS(=O)(=O)N1CCN(CC(=O)NC2CCCCC2)CC1	inactive: -7.49%	–
CC1=C(C(=O)Nc2ccc(Cl)cc2)C(c2ccco2)NC(=O)N1 (stereo not drawn)	inactive: 7.11%	–
C=CCOC(=O)/C(=C\c1ccccc1)NC(=O)c1ccc(C)cc1	–	inconclusive [inhibitor, single point]
COc1ccc(-c2ccc(-c3noc(-c4ccco4)n3)c(OC)n2)cc1	–	inconclusive [inhibitor, single point]
Cc1cc(=O)[nH]c(SCCOc2ccc3c(c2)CCC3)n1	inactive: 14.6%	–
CCCC(=O)OC1(C(=O)CO)CCC2C3CCC4=CC(=O)CCC4(C)C3C(O)CC21C (stereo not drawn)	inactive: 15%	–

Compound	activity, negative = inhibition	Potency
COc1ccc(C(=O)Nc2ccc(S(=O)(=O)NC(C)(C)C)cc2)cc1[N+](=O)[O-]	–	active: 17.8 µM
Cn1nc(-c2ccc(Cl)cc2)cc1NC(=O)CCCC(=O)O	inactive: 5.86%	–
COc1ccc(C)cc1NC(=O)CN1CCN(c2ccccc2F)CC1	–	inconclusive [inhibitor, single point]
O=C(Nc1ccccc1C(=O)NC(Cc1ccc(O)cc1)C(=O)O)c1ccccc1 (stereo not drawn)	inactive: -6.34%	–
O=C(NCC(=O)N(c1ccc(F)cc1)C(C(=O)NCC1CCCO1)c1ccccc1)c1ccco1 (stereo not drawn)	inactive: 3.16%	–
O=C(/C=C/c1ccc(F)cc1)N1CCCc2ccccc21	–	inconclusive [inhibitor, single point]
O=C(c1ccccc1)N1CCN(c2ccc(NCc3ccc4c(c3)OCO4)cc2)CC1	–	inconclusive [inhibitor, full curve, poor fit]
Cc1ccccc1-c1nc(CN2CCC(C(=O)NCCC3=CCCCC3)CC2)c(C)o1	–	inconclusive [inhibitor, single point]
Cc1ccc(S(=O)(=O)c2cnc(-c3ccccc3)nc2N2CCCCC2)cc1	–	active: 12.6 µM
O=C1N=C(N2CCc3ccccc3C2)S/C1=C\c1cccc(O)c1	–	active: 2.51 µM
CC1CCN(S(=O)(=O)c2cn(CC(=O)N3CC(C)CC(C)C3)c(=O)c3ccccc23)CC1 (stereo not drawn)	–	inconclusive [inhibitor, single point]
CC1CCCN(C(=O)CSc2nnc(-c3c[nH]c4ccccc34)o2)C1 (stereo not drawn)	–	active: 14.1 µM
CN(C)C=NC(=O)c1cn(-c2ccc(F)cc2)c(=O)c2ccccc12	inactive: -5.53%	–
O=C(c1ccc2ncsc2c1)N1CCN(c2ccccc2Cl)CC1	inactive: -3.08%	–
Clc1cc2cccnc2c2ccccc12	–	inconclusive [inhibitor, single point]
N#C/C(=C\c1cn(CCOc2ccccc2)c2ccccc12)C(=O)NCc1cccs1	–	inconclusive [inhibitor, partial curve]
O=C(c1cnn2ccccc12)N1CCc2ccccc21	–	inconclusive [inhibitor, single point]
CCN(CC)c1ccc(C2C(C(=O)Nc3ccccn3)=C(C)NC3=C2C(=O)CC(C)(C)C3)cc1 (stereo not drawn)	–	inconclusive [inhibitor, single point]
Cc1cccc(NC(=S)N(CCCN(C)C)Cc2cc3cc4c(cc3[nH]c2=O)OCO4)c1	–	inconclusive [inhibitor, single point]
COc1ccccc1C(=O)NCc1ccncc1	inactive: 12.9%	–
CCc1n[nH]c(=S)n1/N=C/c1ccc(N(CC)CC)cc1	–	active: 10 µM
CCOc1ccc(C2C(C(=O)O)CCC(=O)N2C2CCCCC2)cc1 (stereo not drawn)	inactive: -1.08%	–
COc1ccccc1N1CCN(Cc2ccsc2)CC1	–	inconclusive [inhibitor, single point]
